The least precise scores are not listed. The source holds two more conditions with little spread; they are left out. Names with del lack the residues named; names with ins carry added residues between the positions named. For part of these data: The concentration of ogerin is not given here.
B1: GPR68, Q15743 (parent)
chain: MGNITADNSSMSCTIDHTIHQTLAPVVYVTVLVVGFPANCLSLYFGYLQIKARNELGVYLCNLTVADLFYICSLPFWLQYVLQHDNWSHGDLSCQVCGILLYENIYISVGFLCCISVDRYLAVAHPFRFHQFRTLKAAVGVSVVIWAKELLTSIYFLMHEEVIEDENQHRVCFEHYPIQAWQRAINYYRFLVGFLFPICLLLASYQGILRAVRRSHGTQKSRKDQIQRLVLSTVVIFLACFLPYHVLLLVRSVWEASCDFAKGVFNAYHFSLLLTSFNCVADPVLYCFVSETTHRDLARLRGACLAFLTCSRTGRAREAYPLGAPEASGKSGAQGEEPELLTKLHPAFQTPNSPGSGGFPTGRLA

Legend:
[1] = variants of: B1; experiment: cAMP reporter score (Enrich2 score, wild type = 0); higher = more signal; HEK293T, FACS bins
[2] = variants of: B1; experiment: surface expression score (Enrich2 score, wild type = 0); higher = more signal; HEK293T, FACS bins

Variant	cAMP reporter score ([1]; pH 5.5)	cAMP reporter score ([1]; pH 6)	cAMP reporter score ([1]; pH 6, modulator: ogerin)	cAMP reporter score ([1]; pH 6.5, modulator: ogerin)	surface expression score [2]
MGNITADNSSMSCTIDHTIHQTLAPVVYVTVLVVGFPANCLSLYFGYLQIKARNELGVYLCNLTVADLFYICSLPFWLQYVLQHDNWSHGDLSCQVCGILLYENIYISVGFLCCISVDRYLAVAHPFRFHQFRTLKAAVGVSVVIWAKELLTSIYFLMHEEVIEDENQHRVCFEHYPIQAWQRAINYYRFLVGFLFPICLLLASYQGILRAVRRSHGTQKSRKDQIQRLVLSTVVIFLACFLPYHVLLLERSVWEASCDFAKGVFNAYHFSLLLTSFNCVADPVLYCFVSETTHRDLARLRGACLAFLTCSRTGRAREAYPLGAPEASGKSGAQGEEPELLTKLHPAFQTPNSPGSGGFPTGRLA [V250E]	-1.03	-1.75	-1.13	-0.871	-2.39
MGNITADNSSMSCTIDHTIHQTLAPVVYVTVLVVGFPANCLSLYFGYLQIKARNELGVYLCNLTVADLFYICSLPFWLQYVLQHDNWSHGDLSCQVCGILLYENIYISVGFLCCISVDRYLAVAHPFRFHQFRTLKAAVGVSVVIWAKELLTSIYFLMHEEVIEDENQHRVCFEHYPIQAWQRAINYYRFLVGFLFPICLLLASYQGILRAVRRSHGTQKSRKDQIQRLVLSTVVIFLACFLPYHVLLLFRSVWEASCDFAKGVFNAYHFSLLLTSFNCVADPVLYCFVSETTHRDLARLRGACLAFLTCSRTGRAREAYPLGAPEASGKSGAQGEEPELLTKLHPAFQTPNSPGSGGFPTGRLA [V250F]	0.643	0.303	-0.074	-0.119	
MGNITADNSSMSCTIDHTIHQTLAPVVYVTVLVVGFPANCLSLYFGYLQIKARNELGVYLCNLTVADLFYICSLPFWLQYVLQHDNWSHGDLSCQVCGILLYENIYISVGFLCCISVDRYLAVAHPFRFHQFRTLKAAVGVSVVIWAKELLTSIYFLMHEEVIEDENQHRVCFEHYPIQAWQRAINYYRFLVGFLFPICLLLASYQGILRAVRRSHGTQKSRKDQIQRLVLSTVVIFLACFLPYHVLLLGRSVWEASCDFAKGVFNAYHFSLLLTSFNCVADPVLYCFVSETTHRDLARLRGACLAFLTCSRTGRAREAYPLGAPEASGKSGAQGEEPELLTKLHPAFQTPNSPGSGGFPTGRLA [V250G]	-2.28	-0.837	-1.53	-1.09	-1.62
MGNITADNSSMSCTIDHTIHQTLAPVVYVTVLVVGFPANCLSLYFGYLQIKARNELGVYLCNLTVADLFYICSLPFWLQYVLQHDNWSHGDLSCQVCGILLYENIYISVGFLCCISVDRYLAVAHPFRFHQFRTLKAAVGVSVVIWAKELLTSIYFLMHEEVIEDENQHRVCFEHYPIQAWQRAINYYRFLVGFLFPICLLLASYQGILRAVRRSHGTQKSRKDQIQRLVLSTVVIFLACFLPYHVLLLHRSVWEASCDFAKGVFNAYHFSLLLTSFNCVADPVLYCFVSETTHRDLARLRGACLAFLTCSRTGRAREAYPLGAPEASGKSGAQGEEPELLTKLHPAFQTPNSPGSGGFPTGRLA [V250H]	-0.096		-0.607	-1.51	-2.47
